Experimental findings from the supplement of paper PMC11417369 are described below.

± gives the standard deviation of the averaged measurements. The list shows a part of the results.

The assay relates to PfAP2-EXP AP2 domain (GST-tagged). As to the kind of experiment: gcPBM binding intensity (ln(normalized median fluorescence intensity)); higher = stronger DNA binding. The procedure, abridged: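 Binding intensity is the highest Masliner-normalised natural-log median intensity over replicate spots in either probe orientation. To obtain it, GST-tagged P. falciparum DNA-binding domains made in E. coli were incubated for 1 h on an Agilent 4 × 180k array of primer-extended double-stranded 36-bp intergenic genomic probes plus negative controls. Detection used Alexa488 anti-GST antibody with scanning at 488 nm.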
In the case of “AATAATATTGAAATGTGTACGTATTTATATTTTATG [XGTACX_site8252]”, the “gcPBM binding intensity (ln)” value stood at 8.6 ± 0.31.
The result for “TTTTTCTTTTTTACAGTGCATAAATATATGTATTGT [GTGCAC_site9399]” reads 8.61 ± 0.32.
In the case of “TTTTGTTATATTCAATATTTATATATTATAAATATA [CACACA_negctrl_site1705]” it was 8.43 ± 0.38; in that of “AGCCATTATAATTCTTGTACATAATATAGCTATTTT [XGTACX_site1723]”, 8.88 ± 0.4; in that of “ACATATATATAATATATATTTTTCGTGTGGTGTCAC [CACACA_negctrl_site543]”, 8.43 ± 0.47.
In the case of “GAGCACCAAAATATATGTACATATGATAAATGTGAA [XGTACX_site1130]” it was 8.9 ± 0.4; in that of “TTTTTTATTTTATTTTTTTCTGCTTATCCACATTAG [XGTACX_negctrl_site108]”, 8.73 ± 0.36; in that of “TCACTTTTATAATATAATATTCTATATCTTATTTTT [GTGCAC_negctrl_site717]”, 8.38 ± 0.39.
In the case of “AATATATATATAGGATGTACACATAATTCAAATATA [XGTACX_site2755]”, the “gcPBM binding intensity (ln)” value was determined as 8.76 ± 0.22.
The result for “ATCATTGAAGTTAAAAATATAAAGTATTCAGAAGGG [XGTACX_negctrl_site560]” reads 8.74 ± 0.52.
In the case of “ACCATACATACATACACACACACACCCATATATATA [CACACA_site2917]” it was 8.94 ± 0.45.
In the case of “TTTCATGTTTTAAAGTGTACATAAATATATTATATG [XGTACX_site3367]” it was 8.57 ± 0.38; in that of “TTGTTAGAGTATATTGAAAGGATAACCTTTTTTTAT [XGTACX_negctrl_site122]”, 8.03 ± 0.34.
For the sequence “TTGTGTTTGCGTAAATGTACGGAAAGACTTGAAGAC [XGTACX_site7235]”, the “gcPBM binding intensity (ln)” value was found to be 8.96 ± 0.35.
The result for “TTTTTAATAAAATGATTGATAATTATTAAATTAAAA [CACACA_negctrl_site488]” reads 7.86 ± 0.4; that for “TAACATATCTTTAATACACACTTAAAAAAGTACTTA [CACACA_site4532]”, 8.27 ± 0.39.
In the case of “ACACTTAAATATTGTTGTACAAAATGATAAAATGTA [XGTACX_site4588]” it was 8.6 ± 0.33; in that of “GGAAACACAATATATACACACATATATATATATATA [CACACA_site235]”, 9.95 ± 0.49.
As to “TTATATAACCCTCATGCATGCTAAGAAAAAAAAAAC [TGCATGCA_site936]”, the “gcPBM binding intensity (ln)” value is 9.57 ± 0.35.
The result for “ATTTATATTATAATATGTACACAAAAAAAATTAGGA [XGTACX_site565]” reads 8.78 ± 0.37; that for “TTGATGTATACAATGTAGATTATTTAATATTTCAAT [GTGCAC_negctrl_site203]”, 8.13 ± 0.41.
Regarding “ATTTTTAAGCATATCAAAAAAAAAAAAAAAATTAAT [CACACA_negctrl_site980]”, the “gcPBM binding intensity (ln)” value was determined as 8.01 ± 0.23.
As for “TTACTAAAAATTATTAATAAATAATAATTATAAATT [GTGCAC_negctrl_site310]”, the “gcPBM binding intensity (ln)” value was 7.89 ± 0.45.
On to “TAAAAAGGAAAACACACACACACATATATATATATA [CACACA_site3588]”, for which the “gcPBM binding intensity (ln)” value was 10.2 ± 0.16.
Consider “TTTCCAATTAGTTTTGCATGTTGAAAAAATGTTGGA [TGCATGCA_site1035]”, for which the “gcPBM binding intensity (ln)” value is 8.32 ± 0.33.
As for “TTATTATTAAGACACACACACAAAAAAAAAAAAAAA [CACACA_site6805]”, the “gcPBM binding intensity (ln)” value is 8.26 ± 0.49.
The result for “TATTTTAACTTCTCATGTACATATATTATGTCTATA [XGTACX_site249]” reads 9.01 ± 0.39; that for “CTTTGTAGTATATTAACACACAACTATTTATAATAT [CACACA_site3934]”, 8.3 ± 0.3.
The result for “TATCATAAACTTCCTTACTATACTTTTCTTATTCAT [CACACA_negctrl_site1341]” reads 8.78 ± 0.35; that for “TTTCGATTAAAAATTGTACAATATAAGGAGCACACA [GTGCAC_negctrl_site476]”, 9.12 ± 0.42; that for “ATGAAAATTATAAAGTGTACATATAGAAACATTTAC [XGTACX_site8047]”, 8.365 ± 0.049.
In the case of “ACTGTAACAATCATGGGTACAAATAAAATAATATCT [XGTACX_site99]” it was 8.74 ± 0.47.
Turning to “TAAAAAAAAAAATGAACATGCAACAATTGTGATGAA [TGCATGCA_site332]”, the “gcPBM binding intensity (ln)” value came to 8.93 ± 0.41.
The result for “AACCACAGACATATAACACACATATACAATATATAT [CACACA_site5142]” reads 8.66 ± 0.28.
In the case of CTTTTTTTGACCTTAGTGCAAATAACTATATATTAT it was 8.8 ± 0.16; in that of “TTTTGTCTTATATGTTGTACAACGTAAACAAAAAAA [XGTACX_site4412]”, 8.65 ± 0.28.
On to “AAAAGAATATATAATTGTACTTAAAATATAATTAAG [XGTACX_site4484]”, for which the “gcPBM binding intensity (ln)” value was determined as 8.29 ± 0.26.
The result for “TTTAATCATATGTTATATAATAAGCCCCCCCCCCAA [CACACA_negctrl_site486]” reads 11 ± 0.12; that for “AAAAAAATTAAACATGAAGAATAAGGAACAAAAAAA [CACACA_negctrl_site1607]”, 9.02 ± 0.46.
Consider “ATTTAAGTAGTACATACACACACATATACAAAAAGA [CACACA_site9317]”, for which the “gcPBM binding intensity (ln)” value is 9 ± 0.44.
Turning to “ATGGGACATATATATACACACATATATATATATATA [CACACA_site1202]”, the “gcPBM binding intensity (ln)” value worked out at 10 ± 0.21.
The result for “ACATCTCTTATATATTCACACACATATATATAATTA [CACACA_site8424]” reads 8.82 ± 0.35; that for “GCACATCTATATGAAACACACATGGAAACATCTCTT [CACACA_site7793]”, 8.47 ± 0.35.
The result for “TTAAAAAATTTTTAAGCACACACATAGATAATATAT [CACACA_site8440]” reads 8.85 ± 0.45; that for “TTTTTTTTTTAATTCGCACACTGTCTTCATGCAATT [CACACA_site4882]”, 8.86 ± 0.45; that for “GAAACTTCAAGAAATGCACACAATAAAATAAATAAA [CACACA_site1549]”, 8.71 ± 0.35.
Turning to “AGCATTAAAAATGGAATGGAATTAAGCTATATATTA [CACACA_negctrl_site1571]”, the “gcPBM binding intensity (ln)” value was 8.37 ± 0.46.
The result for “ATAGAATATTATATTACACACAGAATAATAAAAAAT [CACACA_site86]” reads 8.55 ± 0.49.
The result for “AGTATATATTATATATATATATATATATTATATATG [TGCATGCA_negctrl_site99]” reads 8.25 ± 0.26; that for “CATTTCGAAAAAAAATGTACTTATTATATTTATATA [XGTACX_site6752]”, 8.03 ± 0.4; that for “TTATCTTACATAAATTATAACAATAATATGTGTATA [XGTACX_negctrl_site379]”, 7.97 ± 0.33.
In the case of “TGTATATATTATAAAAGTACATAATATTCTTAGATA [XGTACX_site5623]” it was 8.19 ± 0.34.
As to “ATAATATGAAATATAACACACATATATAAAAACATT [CACACA_site866]”, the “gcPBM binding intensity (ln)” value was determined as 8.64 ± 0.57.
Consider “TATTTTTTTTTTGGGTGTACCTTTTATATATATTGT [XGTACX_site5036]”, for which the “gcPBM binding intensity (ln)” value came out at 8.64 ± 0.57.
The result for “TATACACATTTTTATACACACTTGTTTTATAAAACG [CACACA_site6480]” reads 8.59 ± 0.42; that for “CATTTATATATATACACACACACAAAAAAAAAAAAA [CACACA_site2645]”, 8.44 ± 0.49; that for “ATTTAACTAAAGAAGGCACACGTGTTTAAAAAAAAA [CACACA_site5241]”, 8.85 ± 0.52.
The result for “AATATTATATTTTATTGTACTAATAAAAATATATGC [XGTACX_site5435]” reads 8.46 ± 0.46; that for “GACGTTATGATACACATACACACAGGGATAAAAAAT [CACACA_site2882]”, 8.91 ± 0.4.
The result for “TTTTTTTTTTTTTTTTGTACTTAAAAATTTATATAA [XGTACX_site7718]” reads 8.16 ± 0.5; that for “TATATATATATATATGCATGTACATATATTTGTTAT [TGCATGCA_site379]”, 10.3 ± 0.17; that for “GTAACATACACATATACACACACACCGATATACATA [CACACA_site8278]”, 8.7 ± 0.35.
For the sequence “AATATAGTTCAATATACACACCCCTTTATTCATTTT [CACACA_site3625]”, the “gcPBM binding intensity (ln)” value was 8.72 ± 0.54.
The result for “ATTAATTAAGGCACATGTACAAAATATTTTTTATAA [XGTACX_site1964]” reads 8.85 ± 0.69; that for “TATACAATCTATATAACACACATATTTATATAAAAT [CACACA_site1797]”, 8.51 ± 0.47.
Take “CACCAATTCCTATGCACACACATCTGCATATTATAT [CACACA_site5049]”: the “gcPBM binding intensity (ln)” value was 8.96 ± 0.32.
The result for “TTATTTACATCAAGTACATGCAGTAAAAAAAAAAAA [TGCATGCA_site351]” reads 9.03 ± 0.3; that for “ACAAAACGAACATACGCATGTGTGTACATTAATATA [TGCATGCA_site922]”, 8.77 ± 0.37; that for “ATGAACAGTTCATGTTGTACAATCTCCATTTTTTAC [XGTACX_site3933]”, 8.98 ± 0.45.
The result for “ATATAATATATGTATACACACATATTATATAATATT [CACACA_site3699]” reads 8.34 ± 0.32; that for “CAATATAAAAAACACACACACAAACATATATTTATA [CACACA_site3703]”, 8.59 ± 0.66; that for “TATTTATATAAAAATACACACATGAATGGATATATA [CACACA_site6335]”, 8.34 ± 0.41.
In the case of “TGTCGGCTTAGATTAGTGCACTGAAAAATGAAGTAT [GTGCAC_site9919]” it was 9.195 ± 0.064.
With “ATATTATATATATAGGTGCGAGTATTTTATAAATAT [GTGCAC_site9889]”, the “gcPBM binding intensity (ln)” value is 8.55 ± 0.31.
The result for “TATACACCCGGACACACACACATATATATATATATA [CACACA_site5030]” reads 10.1 ± 0.54; that for “TAAGTATACACATACACACACACACTAATAAAAAAA [CACACA_site8035]”, 8.65 ± 0.64.
In the case of “TGATATATTTATATTACACACTTAAACGAAAAAAAA [CACACA_site3021]” it was 8.52 ± 0.44.
The result for “TATTATAATATTTATACACACATAATTTTGATAAAT [CACACA_site583]” reads 8.26 ± 0.3.
On to “AAATATAAAATTTATTGTACATTATATATAATATAT [XGTACX_site1416]”, for which the “gcPBM binding intensity (ln)” value is 8.32 ± 0.32.
The result for “TAAAAATATTAATAAACACACAATGAGATATTGAAT [CACACA_site3153]” reads 8.43 ± 0.51.
In the case of “ATATATATATTATATGCACACGTTAAAATTTCATAT [CACACA_site4552]” it was 9.28 ± 0.12; in that of “CATTCTTGTTTAAAAAGTACATAAACATATATATAT [XGTACX_site1751]”, 9.66 ± 0.13.
The result for “TAAATTAATATGTATCGTACAATATATAAAACGATG [XGTACX_site2818]” reads 8.53 ± 0.37; that for “AAAAAAAATAAAGAGAAAAAAAAAAGAAAATTATAT [GTGCAC_negctrl_site550]”, 8.62 ± 0.49; that for “TTCTTCTGTTTTATTACACACCATTTTGCGTATACA [CACACA_site2070]”, 9.19 ± 0.47.
Regarding “ACATATTATATAACTCGTACTCGTAAAATATGTTGT [XGTACX_site2240]”, the “gcPBM binding intensity (ln)” value stood at 8.66 ± 0.39.
On to “GTTCTTTTATATATTTGTACATATTTATATATATTG [XGTACX_site4078]”, for which the “gcPBM binding intensity (ln)” value is 9.06 ± 0.35.
